From PubChem BioAssay AID493208 (National Center for Advancing Translational Sciences (NCATS), 2011)
Screen size: about 44,000 compounds; about 340 (0.77%) were called active. Not shown: some 5% with an inconclusive outcome. The call rests on the fitted dose curve; in most records, active means well fitted inhibition curve with a large enough effect; inconclusive means small, poorly fitted or top-dose-only effect; inactive means flat fitted curve, though single readings scatter. The list shows a part of the results.

Assay: Acumen qHTS Assay for Inhibitors of the mTORC1 Signaling Pathway in MEF (Tsc2-/-, p53-/-) Cells: Sytravon;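 further: plate controls were DMSO for no effect and rapamycin for full effect; nearly all actives have a fitted effect of over 50% in size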
Settings: phospho-rpS6 immunofluorescence/PI, 24 h; series mostly up to 38.3 µM; activity change, negative = inhibition: at the top concentration
Method in brief: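 Tsc2-/-, p53-/- MEFs (empty-vector stable line) in DMEM + 10% FBS were treated with compounds 24 h at 37 degree Celsius, fixed, and immunostained for phospho-rpS6 (Alexa-488) with propidium iodide counterstain. Laser-scanning cytometry gave % positive cells, normalized against 7.5 nM rapamycin and DMSO.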

Activity change, negative = inhibition, inactive:
CCc1ccc(-n2c(=O)c3c4c(sc3n(Cc3ccc(F)cc3)c2=O)CCCC4)cc1 1.93%
COc1ccc(CNC(=O)c2cccc(N3CCCS3(=O)=O)c2)cc1 -1.53%
O=C1[C@@H]2CSC(c3ccc(F)cc3)N2C(=O)N1c1ccc(Cl)cc1 (some centres not stated) -3.04%
Nc1ncc(S(=O)(=O)NCc2cccc(Cl)c2)cn1 -9.19%
O=C(Cn1c(=O)n2nc(-c3ccccc3)nc2c2ccccc21)Nc1ccccc1C(F)(F)F 1.33%
Cc1ccc2oc(=O)c3cnn(CC(=O)NCc4ccccc4Cl)c3c2c1 -4.79%
Cc1ccc(C)n1-c1nnc(N2CCC(C(=O)NCc3ccccc3Cl)CC2)s1 1.59%
Cc1ccc(-c2nc(CCNC(=O)C(=O)Nc3ccc(C)c(C)c3)cs2)cc1 -0.112%
CCCCC12CN3CC(C)(CN(C1)C3c1cc(Br)ccc1O)C2=O (configuration not stated) -1.98%
COc1ccc(NC(=O)c2ccc3nc(CCc4ccccc4)oc3c2)cc1 2.89%
CC(=O)c1cc(-c2ccc(F)cc2)n(CCC(=O)NCc2ccccc2C)c1C -3.73%
CS(=O)(=O)c1ccc2nc(NC(=O)CS(=O)(=O)c3ccc(Cl)cc3)sc2c1 0.0121%
COc1ccccc1NC(=O)C1CCCN(c2nnc(C)c3c(C)n(-c4ccccc4)nc23)C1 (configuration not stated) -2.04%
Cc1ccc(N2CCN(c3nc4ccc(C)cc4n4nnnc34)CC2)c(C)c1 0.202%
Cc1ccc(NC2=C(c3ccc(C(F)(F)F)cc3)C(=O)c3ccccc32)cc1F -7.53%
CCOc1ccccc1NC(=O)CSc1nc2ccccc2c2nc(CCn3cncc3C)nn12 -0.95%
O=C(NCC(c1cccnc1)N1CCc2ccccc21)c1ccccc1Br (configuration not stated) 6.77%
CCCN(CCC)C(=O)Cn1c(=O)n(-c2cccc(C(F)(F)F)c2)c(=O)c2c(C)c(C)sc21 -6.12%
O=C(Cn1c(=O)n(Cc2ccco2)c(=O)c2cccnc21)Nc1ccccc1F -1.34%
CCOc1cc(C(=O)Nc2ccc(-c3nc4cc(C)ccc4o3)cc2)cc(OCC)c1OCC -5.97%
O=C(Nc1ccc2nc(SCC(=O)N3CCCC3)sc2c1)c1ccccc1 -2.34%
COc1cc2c(-c3ccccc3C)nc3c(c(C)nn3-c3ccccc3)c2cc1OC 16.5%
Cc1ccc(OCC(=O)Nc2c(C(=O)c3ccccc3)oc3ccccc23)cc1C 4.55%
CCc1ccc(NC(=O)CC2C(=O)N(c3cccc(C)c3)C(=O)N2Cc2cccs2)cc1 (configuration not stated) -1.08%
COc1ccc(CNC(=O)Cn2c(SCC(=O)N(C)c3ccccc3)nc3ccccc32)cc1 0%
CCCCn1c(=O)n(-c2ccc(Br)cc2F)c(=O)c2c3c(sc21)CN(C(C)=O)CC3 -0.761%
CCOC(=O)c1noc2nc(C)n(CC(=O)Nc3cc(Cl)ccc3OC)c(=O)c12 -8.24%
COc1cc(C(=O)Nc2ccc3nn(-c4ccc(F)cc4)nc3c2)cc(OC)c1OC 9.21%
Cc1csc2nc(COC(=O)c3ccc(NC(=O)COc4ccccc4F)cc3)cc(=O)n12 1.4%
CC1=C(C(=O)OCC2CCCCC2)C(c2ccc(F)cc2F)CC(=O)N1 (configuration not stated) -26.6%
COc1ccccc1CNC(=O)C(=O)NCC(c1cccs1)S(=O)(=O)c1ccc(F)cc1 (configuration not stated) -4.09%
Oc1c(C(c2ccccc2)N2CCN(Cc3ccccc3)CC2)sc2nc(-c3ccco3)nn12 (configuration not stated) -6.93%
Cc1ccc(CNC(=O)C2CCN(S(=O)(=O)N3CCC(C)CC3)CC2)cc1 12.9%
CC(=O)Nc1nnc(SCc2cc(=O)c3cc(C)ccc3[nH]2)s1 -18.7%
CC1=C(C(=O)Nc2ccccc2)C(c2ccccc2)n2nc(-c3ccco3)nc2N1 (configuration not stated) 5.67%
COc1ccc(NC(=O)Cn2c(SCc3cccc(Cl)c3)nc3ccncc32)c(OC)c1OC 3.8%
Cc1ccc(NCc2cccn2-c2nnc(N3CCCCCC3)s2)cc1 -3.91%
CCOc1ccccc1NC(=O)C(C)Sc1cc(-c2ccccc2)nc(C)n1 (configuration not stated) -9.22%
CCOc1ccccc1NC(=O)CCn1c(-c2ccc(OC)cc2)cc(C(C)=O)c1C -0.118%
CCCCNC(=O)C1CCN(S(=O)(=O)c2cc(Br)cc3c2N(C(=O)CC)CC3)CC1 1.78%
Cn1c(=O)cc(SCC(=O)NCc2ccc(F)cc2)c2ccc(Cl)cc21 -15.5%
COC(=O)c1cc(-c2ccc(C)cc2)c2c(=O)n(C)c(=O)n(C)c2n1 1.3%
OCCN(CCO)c1ncnc2c1cnn2-c1ccc(F)cc1 -20.5%
COc1ccccc1C(=O)Oc1ccc(C(c2c(C)[nH][nH]c2=O)c2c(C)[nH][nH]c2=O)cc1 -1.77%
COc1cccc(CNC(=O)c2cc(S(=O)(=O)N3CCCCC3)c[nH]2)c1 -1.65%
COc1ccc(CC(=O)Nc2ccc(-c3nc4ccccc4s3)c(C)c2)cc1OC -1.17%
COc1ccc2oc(=O)c(C(=O)N3CCN(c4ccc(C)cc4)CC3)cc2c1 3.8%
COc1ccc(-c2cc(C(F)(F)F)nc(NCCc3ccccc3)n2)cc1OC 3.18%
Cc1csc2nc(COC(=O)c3ccccc3NC(=O)c3ccc(C(C)(C)C)cc3)cc(=O)n12 5.25%
O=C(CCCn1c(=O)c2cccn2c2ccccc21)NCCc1ccc(Cl)cc1 8.45%
CSc1nn(Cc2ccc(C)cc2)c(N)c1S(=O)(=O)c1ccccc1 -19.9%
COc1ccc(-c2cc(C(=O)Nc3c(C)n(C)n(-c4ccccc4)c3=O)no2)cc1OC 3.91%
Cc1c(CC(=O)NCc2ccc(F)cc2)c(=O)oc2cc(O)c(Cl)cc12 -5.09%
COc1ccc(NC(=O)CC2NCCNC2=O)c(OC)c1 (configuration not stated) -0.155%
CCOc1cccc2sc(N(Cc3cccnc3)C(=O)c3ccc(C#N)cc3)nc12 -9.71%
CCOC(=O)c1c(NC(=O)C2c3ccccc3Oc3ccccc32)sc(C)c1C -13.5%
Cc1cc(C)n(-c2nc3ccccc3nc2N2CCN(c3cccc(C(F)(F)F)c3)CC2)n1 -22.8%
O=C(NCc1ccccc1Cl)c1ccc2oc(=O)n(Cc3ccccc3)c2c1 12.4%
Cc1cccc(-n2nc(C)c(C(=O)Nc3cc(C)ccc3C)c2-n2cccc2)c1 0.319%
Cc1ccc(-n2c(SCc3ccccc3)nc3c([nH]c4ccccc43)c2=O)cc1 0.0818%
COc1ccc(CNC(=O)c2ccc3nc(-c4ccc(F)cc4)c(-c4ccc(F)cc4)nc3c2)cc1 3.8%
Cc1nnc(NC(=O)c2ccccc2)s1 -0.123%
